# Out of some 2,700 compounds screened, about 160 (5.9%) showed an effect of 50% or more. The list shows a part of the results.
# Target: Nonstructural protein 3 (Zika virus) (UniProt A0A024AXB9)
# [1] = PRVABC59, Concentration 15.0 uM, Number of replicates 1.0
# [2] = PRVABC59, Concentration 10.0 uM, Number of replicates 1.0
# [3] = PRVABC59, Concentration 50.0 uM, Number of replicates 1.0
# Sequence of UniProt A0A024AXB9 (A0A024AXB9 as listed by the source): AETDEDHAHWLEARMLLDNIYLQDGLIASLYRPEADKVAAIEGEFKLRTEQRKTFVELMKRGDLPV
compound,measurement,setting,value
CC(C)n1c(CNC(=O)c2cc(Cl)ccc2NS(=O)(=O)c2ccc(Oc3ccccc3Cl)cc2)nc2ccccc21,inhibition,[1],37%
CC(C)(C)N(Cc1ccccc1)C(=O)c1cc(Cl)ccc1NS(=O)(=O)c1ccc(Oc2ccccc2Cl)cc1,inhibition,[1],22.1%
CCc1noc([C@@H](C)n2cc(C3CCNCC3)c(C)n2)n1,inhibition,"PRVABC59, Concentration 49.5 uM, Number of replicates 2.0, Standard deviation 3.622774663384733 %",-2.67%
same,inhibition,"PRVABC59, Concentration 99.01 uM, Number of replicates 2.0, Standard deviation 2.14425328677139 %",-4.08%
same,inhibition,"PRVABC59, Concentration 198.0 uM, Number of replicates 2.0, Standard deviation 1.4487123594595053 %",-2.88%
O=C(NCc1n[nH]c2c1CCCC2)[C@@]1(c2ccc(F)cc2)CCCNC1,inhibition,"PRVABC59, Concentration 49.5 uM, Number of replicates 2.0, Standard deviation 2.5983721135581743 %",-2.26%
same,inhibition,"PRVABC59, Concentration 99.01 uM, Number of replicates 2.0, Standard deviation 1.141586498924627 %",-0.919%
same,inhibition,"PRVABC59, Concentration 198.0 uM, Number of replicates 2.0, Standard deviation 1.2082632400057025 %",2.23%
Cc1nccn1-c1ccccc1CNC(=O)c1cc(Cl)ccc1NS(=O)(=O)c1ccc(Oc2ccccc2Cl)cc1,inhibition,[1],16.8%
CC(=O)N[C@H](C(=O)Nc1cccc(C(N)=O)c1)c1ccc(OCc2ccccc2)cc1,inhibition,"PRVABC59, Concentration 49.5 uM, Number of replicates 2.0, Standard deviation 3.415915417887423 %",1.8%
same,inhibition,"PRVABC59, Concentration 99.01 uM, Number of replicates 2.0, Standard deviation 2.635484921409503 %",5.01%
same,inhibition,"PRVABC59, Concentration 198.0 uM, Number of replicates 2.0, Standard deviation 2.5333347847854073 %",9.43%
CN(Cc1cccc(F)c1F)C(=O)C1CCN(c2ccc(C=O)cc2)CC1,inhibition,[2],27.6%
c1ccc2c([C@H]3CCN(Cc4ccn[nH]4)C3)c[nH]c2c1,inhibition,"PRVABC59, Concentration 49.5 uM, Number of replicates 2.0, Standard deviation 2.8902363210243864 %",4.45%
same,inhibition,"PRVABC59, Concentration 99.01 uM, Number of replicates 2.0, Standard deviation 2.5964245709087583 %",8.62%
same,inhibition,"PRVABC59, Concentration 198.0 uM, Number of replicates 2.0, Standard deviation 2.7683580875493115 %",16.5%
O=Cc1ccc(N2CCC(C(=O)N3CCC(c4ccncc4)CC3)CC2)cc1,inhibition,[3],29.4%
CN(Cc1cc([N+](=O)[O-])ccc1Cl)C(=O)c1cc(Cl)ccc1NS(=O)(=O)c1ccc(Oc2ccccc2Cl)cc1,inhibition,[1],15.4%
NC(=O)c1ccc(Cl)c(NC(=O)c2cc(Cl)ccc2NS(=O)(=O)c2ccc(Oc3ccccc3Cl)cc2)c1,inhibition,[1],18.6%
CC(C)(CO)NC(=O)c1cc(Cl)cc(NC(=O)Cc2cccnc2)c1,inhibition,"PRVABC59, Concentration 49.5 uM, Number of replicates 2.0, Standard deviation 2.8295711588021697 %",-0.77%
same,inhibition,"PRVABC59, Concentration 99.01 uM, Number of replicates 2.0, Standard deviation 5.3486046749508604 %",1.67%
same,inhibition,"PRVABC59, Concentration 198.0 uM, Number of replicates 2.0, Standard deviation 2.253441862803108 %",0.409%
Cc1cnccc1NC(=O)c1cccc(-c2nccs2)c1,inhibition,"PRVABC59, Concentration 49.5 uM, Number of replicates 2.0, Standard deviation 3.1083112380371505 %",-3.05%
same,inhibition,"PRVABC59, Concentration 99.01 uM, Number of replicates 2.0, Standard deviation 1.3089777285289714 %",0.097%
same,inhibition,"PRVABC59, Concentration 198.0 uM, Number of replicates 2.0, Standard deviation 1.9614235243118916 %",0.998%
CCc1cc(Br)ccc1NC(=O)C1CCN(c2ccc(C=O)cc2)CC1,inhibition,[3],29.2%
O=C(NCCCc1cccc(C(F)(F)F)c1)c1cc(Cl)ccc1NS(=O)(=O)c1ccc(Oc2ccccc2Cl)cc1,inhibition,[1],11.8%
Cc1ccc(NC(=O)c2cc(Cl)ccc2NS(=O)(=O)c2ccc(Oc3ccccc3Cl)cc2)c(Br)c1,inhibition,[1],34.4%
CC(C)Nc1nc2ccc(C(=O)NCc3cnn(C)c3)cc2[nH]1,inhibition,"PRVABC59, Concentration 49.5 uM, Number of replicates 2.0, Standard deviation 1.8680242324769916 %",-0.717%
same,inhibition,"PRVABC59, Concentration 99.01 uM, Number of replicates 2.0, Standard deviation 3.118010703019205 %",-0.01%
same,inhibition,"PRVABC59, Concentration 198.0 uM, Number of replicates 2.0, Standard deviation 2.531768976679667 %",1.86%
CNC(=O)C1(CNS(=O)(=O)c2ccc(Oc3ccccc3Cl)cc2)CCCC1,inhibition,"PRVABC59, Concentration 49.5 uM, Number of replicates 2.0, Standard deviation 2.282728190546782 %",0.418%
same,inhibition,"PRVABC59, Concentration 99.01 uM, Number of replicates 2.0, Standard deviation 2.1749325678583493 %",2.65%
same,inhibition,"PRVABC59, Concentration 198.0 uM, Number of replicates 2.0, Standard deviation 2.475069295530007 %",4.84%
O=C(NCc1ccc(F)c(Cl)c1)c1cc(Cl)ccc1NS(=O)(=O)c1ccc(Oc2ccccc2Cl)cc1,inhibition,[1],34.8%
COc1ccc([C@H](C)N(C)C(=O)c2cc(Cl)ccc2NS(=O)(=O)c2ccc(Oc3ccccc3Cl)cc2)cc1,inhibition,[1],23.2%
O=Cc1ccc(N2CCC(C(=O)Nc3nnc(C(F)(F)F)s3)CC2)cc1,inhibition,[3],26.5%
O=Cc1ccc(N2CCC(C(=O)NCCNC(=O)c3ccc(F)cc3)CC2)cc1,inhibition,[3],27%
O=Cc1ccc(N2CCC(C(=O)N[C@H](CO)[C@H](O)c3ccc([N+](=O)[O-])cc3)CC2)cc1,inhibition,[3],25.6%
O=C(c1cc(Cl)ccc1NS(=O)(=O)c1ccc(Oc2ccccc2Cl)cc1)N1CCC(Oc2ccccc2)CC1,inhibition,[1],7.01%
COc1cc(NC(=O)C2CCN(c3ccc(C=O)cc3)CC2)ccc1Br,inhibition,[3],26.1%
Cc1nc(Cl)c(NC(=O)c2cc(Cl)ccc2NS(=O)(=O)c2ccc(Oc3ccccc3Cl)cc2)c(Cl)n1,inhibition,[1],19.7%
Cc1cc(CO)c2cccc(NC(=O)Cc3csc(Cc4ccccc4)n3)c2n1,inhibition,"PRVABC59, Concentration 49.95 uM, Number of replicates 2.0, Standard deviation 1.5807158675271402 %",17.9%
same,inhibition,"PRVABC59, Concentration 99.9 uM, Number of replicates 2.0, Standard deviation 3.6130638767054974 %",31.5%
O=Cc1ccc(N2CCC(C(=O)NCC3(N4CCOCC4)CCCCC3)CC2)cc1,inhibition,[3],25.4%
O=C(Nc1ccccc1Cc1ccccc1)c1cc(Cl)ccc1NS(=O)(=O)c1ccc(Oc2ccccc2Cl)cc1,inhibition,[1],55.2%
O=C(Nc1ccc(F)nc1Br)c1cc(Cl)ccc1NS(=O)(=O)c1ccc(Oc2ccccc2Cl)cc1,inhibition,[1],22.8%
COc1ccccc1N1CCN(CCCNC(=O)C2CCN(c3ccc(C=O)cc3)CC2)CC1,inhibition,[3],26.1%
C[C@H]1CN(Cc2ccccc2)CCN1C(=O)c1cc(Cl)ccc1NS(=O)(=O)c1ccc(Oc2ccccc2Cl)cc1,inhibition,[1],18.8%
COc1ccc(NC(=O)C2CCN(c3ccc(C=O)cc3)CC2)c([N+](=O)[O-])c1,inhibition,[3],21.7%
O=Cc1ccc(N2CCC(C(=O)NCc3ccsc3Br)CC2)cc1,inhibition,[2],19.3%
Cc1c(C(=O)NCC(F)(F)c2n[nH]c3c2COCC3)ccc(O)c1NC(=O)c1ccncc1F,inhibition,"PRVABC59, Concentration 49.5 uM, Number of replicates 2.0, Standard deviation 2.652978286985313 %",2.12%
same,inhibition,"PRVABC59, Concentration 99.01 uM, Number of replicates 2.0, Standard deviation 1.707336801571449 %",3.79%
same,inhibition,"PRVABC59, Concentration 198.0 uM, Number of replicates 2.0, Standard deviation 1.3187168958423232 %",5.58%
N#CCCN(Cc1cccnc1)C(=O)c1cc(Cl)ccc1NS(=O)(=O)c1ccc(Oc2ccccc2Cl)cc1,inhibition,[1],15.5%
Cc1cc(N)c2cccc(Cl)c2n1,inhibition,"PRVABC59, Concentration 49.95 uM, Number of replicates 2.0, Standard deviation 13.811247628155078 %",-6.63%
same,inhibition,"PRVABC59, Concentration 99.9 uM, Number of replicates 2.0, Standard deviation 13.70369241109055 %",-1.25%
Cc1cccc(N2CCN(C(=O)C3CCN(c4ccc(C=O)cc4)CC3)CC2)n1,inhibition,[3],28.4%
CC1(C)C[C@]1(CNC(=O)c1cc(Cl)ccc1NS(=O)(=O)c1ccc(Oc2ccccc2Cl)cc1)c1ccccc1,inhibition,[1],34.1%
Cc1cc(CO)c2cccc(Cc3ccccc3NC(=O)c3cc(C(=O)O)[nH]n3)c2n1,inhibition,"PRVABC59, Concentration 49.95 uM, Number of replicates 2.0, Standard deviation 2.0307752573793247 %",3.65%
same,inhibition,"PRVABC59, Concentration 99.9 uM, Number of replicates 2.0, Standard deviation 1.43019497297885 %",9.98%
C[C@H](NC(=O)C1CCN(c2ccc(C=O)cc2)CC1)c1ccc2c(c1)OCCCO2,inhibition,[2],24.8%
N#Cc1c(Cl)cccc1NC(=O)C1CCN(c2ccc(C=O)cc2)CC1,inhibition,[3],23.2%
CN(Cc1ccccc1Br)C(=O)c1cc(Cl)ccc1NS(=O)(=O)c1ccc(Oc2ccccc2Cl)cc1,inhibition,[1],32.5%
CC[C@H](C)N(Cc1ccccc1)C(=O)c1cc(Cl)ccc1NS(=O)(=O)c1ccc(Oc2ccccc2Cl)cc1,inhibition,[1],23.6%
O=Cc1ccc(N2CCC(C(=O)Nc3cccc(Cl)c3Br)CC2)cc1,inhibition,[3],21%
CC(C)n1cnnc1CCNC(=O)c1cc(Cl)ccc1NS(=O)(=O)c1ccc(Oc2ccccc2Cl)cc1,inhibition,[1],2.16%

# Reference: ChEMBL document CHEMBL5606458, “ASAP - ZIKV NS2B-NS3 protease fluorescence single point” (2024)
